These results are taken from PubChem BioAssay AID1347073 (National Center for Advancing Translational Sciences (NCATS), 2019).

The whole screen tested about 45,000 compounds, of which about 200 (0.44%) were called active. Not shown: some 7% with an inconclusive outcome. The call rests on the fitted dose curve; in most records, active means well fitted activation curve with a large enough effect; inconclusive means small, poorly fitted or top-dose-only effect; inactive means no such curve, though single readings can be large or run the other way. This is one part of the list. Square brackets hold non-standard residues; d marks the D form. Peptide text beside a SMILES is read from it. * marks the point of attachment. Tic = O=C(O)[C@@H]1Cc2ccccc2CN1; Boc = CC(C)(C)OC(=O)*

The experiment can be described thus: qHTS of TDP-43 Inhibitors: NCGC Sytravon Library Screen. Further: 0% is about no effect; nearly all actives have a fitted effect of over 55% in size. The conditions noted are these: yeast TDP-43 toxicity rescue, BacTiter-Glo growth, 24 h; series mostly up to 46.1 µM; growth rescue (activation): at the top concentration. The method, boiled down: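 TDP-43-expressing yeast, pregrown in raffinose, seeded at OD600 0.02 in galactose medium with compound for 24 hr at 30 deg C. Growth read by BacTiter-Glo luminescence, so rescue of toxicity appears as activation.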
On to `COc1ccc(NC(=O)Cc2cccs2)cc1S(=O)(=O)N1CCCCC1`, for which the “growth rescue (activation)” value is inactive: 16.3%.

`CN(C)c1ccc(/C=N/N=C/c2ccccc2O)cc1`: the “growth rescue (activation)” value is inactive: 0.0987%.

Take `O=C(NCc1ccco1)c1c[nH]c2ccc(S(=O)(=O)N3CCOCC3)cc2c1=O`: the “growth rescue (activation)” value was inactive: -11.2%.

For the molecule `COc1ccc(NC(=O)C2(C)Cc3c(-c4ccc(C(N)=O)cc4)ccnc3O2)cn1` (stereo not given), the “growth rescue (activation)” value is inactive: -6.18%.

Turning to `CN(NS(=O)(=O)c1ccc(Cl)cc1)c1ncc(C(F)(F)F)cc1Cl`, the “growth rescue (activation)” value was inactive: 20.7%.

On to `O=C(COC(=O)COc1ccccc1)Nc1ncc(Cl)cc1Cl`, for which the “growth rescue (activation)” value was inactive: -10.6%.

Consider `CN(C)[C@@H]1CCC[C@H]1OC(=O)C(c1ccccc1)c1ccccc1`, for which the “growth rescue (activation)” value is inactive: -3.03%.

Consider `CC(C)c1ccc(N=C2N=C(N)c3ccccc32)cc1`, for which the “growth rescue (activation)” value is inactive: 27.9%.

As for `CCOC(=O)CCCN1CC(O)=C(c2nc3ccccc3s2)C1=N`, the “growth rescue (activation)” value was inactive: 8.58%.

Consider `CCCCn1c(=O)[nH]c(=O)c2c1nc(-c1ccc3ccccc3c1)n2CC`, for which the “growth rescue (activation)” value is inactive: -8.39%.

In the case of `COc1ccc(Cl)cc1S(=O)(=O)N1CCCC(C(=O)N2CCOCC2)C1` (stereo not given), the “growth rescue (activation)” value was inactive: 2.84%.

As for `CCCCC(=O)N(C)c1c(C)nc2ccc(C(=O)N3CCCCC3)cn12`, the “growth rescue (activation)” value was inactive: -9.12%.

In the case of `C/C(=N\Nc1nc(-c2cc(C)ccc2C)cs1)c1cc2ccccc2oc1=O`, the “growth rescue (activation)” value was inactive: -11.3%.

As to `CCN(CC)S(=O)(=O)c1cccc(C(=O)OCC(=O)NC(C)c2ccccc2)c1` (stereo not given), the “growth rescue (activation)” value was inactive: 13.8%.

Turning to `COc1ccccc1CC(=O)Nc1ccc(S(=O)(=O)N2CCOCC2)cc1`, the “growth rescue (activation)” value is inactive: -11.9%.

Turning to `Cc1ccc(Cc2c(C)nc3nc(SCC(=O)NCCCN4CCOCC4)nn3c2C)cc1`, the “growth rescue (activation)” value was inactive: 6.9%.

Consider `O=C(N/N=C/c1cccc(OC(=O)c2cccc(Br)c2)c1)c1cccnc1`, for which the “growth rescue (activation)” value is inactive: 34.7%.

Consider `COc1ccc(Cl)cc1C(=O)NNC(=O)CNC(=O)c1ccc(C)s1`, for which the “growth rescue (activation)” value is inactive: 6.76%.

Consider `CC(=O)C1=C(O)C(=O)N(Cc2ccccc2)C1c1ccc(Cl)cc1` (stereo not given), for which the “growth rescue (activation)” value is inactive: -3.65%.

`COc1ccc(OC)c(S(=O)(=O)N2CCN(C)CC2c2ccccc2)c1` (stereo not given): the “growth rescue (activation)” value was inactive: -4.19%.

For `COc1ccc(-n2cnc3cc(C(=O)NCCN4CCOCC4)ccc32)cc1`, the “growth rescue (activation)” value was inactive: 8.86%.

Consider `O=C(Cn1cc(C(F)(F)F)ccc1=O)OCC(=O)c1ccc[nH]1`, for which the “growth rescue (activation)” value is inactive: -9.62%.

`O=[N+]([O-])c1ccc(-c2ccc(/C=N/Nc3nc(N4CCCC4)nc(N4CCCC4)n3)o2)cc1`: the “growth rescue (activation)” value is inactive: 11%.

Consider `Cc1ccc(OCC(=O)c2cc(C)n(CC(F)(F)F)c2C)c([N+](=O)[O-])n1`, for which the “growth rescue (activation)” value was inactive: 10.4%.

For the molecule `COc1nc(-c2cnccn2)sc1C`, the “growth rescue (activation)” value was inactive: -3.25%.

In the case of `Cc1nnc(-c2ccccc2)[nH]c1=O`, the “growth rescue (activation)” value is inactive: -7.48%.

Take `Cc1ccc(NC(=O)c2ccc([N+](=O)[O-])o2)cc1C`: the “growth rescue (activation)” value is inactive: -94%.

Regarding `COc1ccccc1-n1c(Cc2cccs2)n[nH]c1=S`, the “growth rescue (activation)” value is inactive: -8.02%.

As to `CC(C)(C)OC(=O)N1Cc2ccccc2C[C@H]1C(=O)N1CCC[C@H]1C(=O)O` (Boc-[Tic]-Pro-OH), the “growth rescue (activation)” value is inactive: -3.75%.

As to `O=C(NCC(c1ccc(F)cc1)N1CCOCC1)c1ccc(C(=O)c2ccccc2)cc1` (stereo not given), the “growth rescue (activation)” value is inactive: -16.9%.

`Cc1cc(C)cc(NC(=O)Nc2cccs2)c1`: the “growth rescue (activation)” value is inactive: -1.67%.

With `Cc1cc(C)n(CC(C)NC(=O)CCc2nnc(CCc3ccccc3)o2)n1` (stereo not given), the “growth rescue (activation)” value was inactive: 1.07%.

On to `O=C(c1nc2ccccc2[nH]1)c1ccccc1[N+](=O)[O-]`, for which the “growth rescue (activation)” value is inactive: 18%.

`NS(=O)(=O)c1ccc(CNC(=O)c2ccc(Cl)cc2[N+](=O)[O-])cc1`: the “growth rescue (activation)” value is inactive: 20.4%.

Take `CSc1nc2c(c(=O)[nH]1)C(c1ccccc1Cl)CC(=O)N2` (stereo not given): the “growth rescue (activation)” value was inactive: -2.58%.

For the molecule `Cc1ccc(NC(=O)CN2C(=O)N/C(=C/c3ccc4c(c3)OCCO4)C2=O)cc1`, the “growth rescue (activation)” value was inactive: 1.98%.

On to `O=C(COC(=O)CCc1nc2ccccc2c(=O)[nH]1)Nc1ccc(N2CCOCC2)cc1`, for which the “growth rescue (activation)” value is inactive: 25.1%.

Consider `N#CCc1nn(-c2ccc(Cl)cc2)c(N)c1C#N`, for which the “growth rescue (activation)” value was inactive: 18.1%.

Regarding `O=C(COc1cccnc1[N+](=O)[O-])N1CCc2ccccc2C1`, the “growth rescue (activation)” value is inactive: -1.02%.

Consider `CCN(CC)S(=O)(=O)c1ccc(C(=O)OCC(=O)NC2CCCC2)cc1`, for which the “growth rescue (activation)” value was inactive: 0.058%.

Consider `COC(=O)c1ccc(NC(=O)C2CCCN(S(C)(=O)=O)C2)cc1` (stereo not given), for which the “growth rescue (activation)” value was inactive: -10.6%.

Consider `S=C(NCCN1CCOCC1)Nc1ccc(Br)cc1`, for which the “growth rescue (activation)” value was inactive: -17.5%.

With `O=C(NNC(=O)c1cc(Cl)ccc1O)c1cccs1`, the “growth rescue (activation)” value was inactive: 14.6%.

Regarding `O=C(O)CNC(=O)/C(=C\c1cccc([N+](=O)[O-])c1)NC(=O)c1ccco1`, the “growth rescue (activation)” value is inactive: 31.1%.

As to `COC(=O)c1cc(NC(=O)c2ccc(C)cc2)c(=O)oc1C`, the “growth rescue (activation)” value was inactive: 3.05%.

Take `O=C(CC12CC3CC(CC(Br)(C3)C1)C2)NCc1ccccc1`: the “growth rescue (activation)” value was inactive: 5%.

In the case of `CSc1ncccc1C(=O)OCC(=O)c1ccc(C)s1`, the “growth rescue (activation)” value is inactive: 7.54%.

Turning to `C/C(=N\NC(=O)c1cccc(Cl)c1)c1cccc(NC(=O)c2ccco2)c1`, the “growth rescue (activation)” value is inactive: 0.739%.

Consider `CC(=O)NC(Cc1ccc(F)c(F)c1)C(=O)NC1CCN(c2nnnn2-c2ccccc2)CC1` (stereo not given), for which the “growth rescue (activation)” value is inactive: -0.882%.

Take `O=C(CC1C(=O)NCCN1Cc1ccccc1C(F)(F)F)NCCn1cccn1` (stereo not given): the “growth rescue (activation)” value is inactive: 8.95%.

With `CCCN(CCC)C(=O)Cn1c(=O)n(CCCC(=O)NCc2ccco2)c(=O)c2sccc21`, the “growth rescue (activation)” value was inactive: 0.43%.

Consider `S=C(N/N=C1\CCc2ccccc21)NC1CCCCC1`, for which the “growth rescue (activation)” value was inactive: 25.8%.

For `Nc1cc(N)nc(SCC(=O)Nc2ccc3c(c2)OCO3)n1`, the “growth rescue (activation)” value is inactive: 3.16%.

On to `O=C1NC2=C(C(=O)CCC2)C(c2ccccc2)N1` (stereo not given), for which the “growth rescue (activation)” value was inactive: 10.8%.

Take `Cc1nnc(SCC(=O)NC23CC4CC(CC(C4)C2)C3)s1`: the “growth rescue (activation)” value was inactive: 12.8%.
